# Results taken from paper PMC11995724, “Antibiotic target discovery by integrated phenotypic and activity-based profiling of electrophilic fragments” (Cell chemical biology, 2025).
# Screen size: about 3,200 compounds; about 110 (3.4%) showed an effect of 50% or more. The list shows a part of the results.
# System: T1, V. cholerae SAD30
# T1 construct: SAD30
# Design: species or system S. aureus MSSA476 (TSB) or V. cholerae SAD30 (LB); 384-well bacterial growth screen at 25 uM, OD600 relative to DMSO control
# Conditions: relative growth, OD600, LB; 25 µM; inhibitor
row,Compound,% of control remaining [%]
1,"C=CC(=O)Nc1ccc(C(=O)N2CCC(C(C)C)CC2)cc1 [3-B15, N-{4-[4-(propan-2-yl)piperidine-1-carbonyl]phenyl}prop-2-enamide]",103.735
2,"C=CC(=O)N[C@@H](C)c1ccccc1OC [1-K06, N-[(1S)-1-(2-methoxyphenyl)ethyl]prop-2-enamide]",89.6861
3,"N#CC(=Cc1cccc2ccccc12)C(=O)NC1CC1 [9-O03, 2-cyano-N-cyclopropyl-3-(naphthalen-1-yl)prop-2-enamide]",97.2808
4,"C=CC(=O)NC1COC(C)C1 (centres unmarked) [1-H17, N-(5-methyloxolan-3-yl)prop-2-enamide]",87.4439
5,"C=CC(=O)N1CCC(c2ncc(C(=O)O)o2)CC1 [2-G19, 2-[1-(prop-2-enoyl)piperidin-4-yl]-1,3-oxazole-5-carboxylic acid]",94.519
6,"COc1cccc(NC(=O)C(C#N)=Cc2ccc(C#N)cc2)c1 [8-G18, 2-cyano-3-(4-cyanophenyl)-N-(3-methoxyphenyl)prop-2-enamide]",67.913
7,"C=CC(=O)N1CCC(C(=O)N2CCC(Cc3ncon3)CC2)CC1 [2-J06, 1-(4-{4-[(1,2,4-oxadiazol-3-yl)methyl]piperidine-1-carbonyl}piperidin-1-yl)prop-2-en-1-one]",91.7398
8,"CC(Cl)C(=O)N(Cc1cnn(C)c1)c1ccc(F)cc1 (centres unmarked) [6-P11, 2-chloro-N-(4-fluorophenyl)-N-[(1-methyl-1H-pyrazol-4-yl)methyl]propanamide]",104.048
9,"Cc1cccc(Cl)c1CCCNC(=O)CCl [7-F04, 2-chloro-N-[3-(2-chloro-6-methylphenyl)propyl]acetamide]",91.9874
10,"Cc1cc(C(=O)CCl)c(C)n1C(C)c1ccccc1 (centres unmarked) [10-P17, 2-chloro-1-[2,5-dimethyl-1-(1-phenylethyl)-1H-pyrrol-3-yl]ethan-1-one]",96.4738
11,"COc1ccc([N+](=O)[O-])cc1NC(=O)C(C)Cl (centres unmarked) [5-N14, 2-chloro-N-(2-methoxy-5-nitrophenyl)propanamide]",92.6342
12,"CC(Cl)C(=O)Nc1ccc(-c2c[nH]cn2)cc1 (centres unmarked) [5-F08, 2-chloro-N-[4-(1H-imidazol-4-yl)phenyl]propanamide]",97.5097
13,"N#Cc1cccc(C(NC(=O)CCl)C(F)(F)F)c1 (centres unmarked) [7-N04, 2-chloro-N-[1-(3-cyanophenyl)-2,2,2-trifluoroethyl]acetamide]",91.9874
14,"O=C(CCl)Nc1cc(S(=O)(=O)N2CCOCC2)ccc1Cl [6-H03, 2-chloro-N-[2-chloro-5-(morpholine-4-sulfonyl)phenyl]acetamide]",102.986
15,"Cl.O=C(CCl)Nc1ncc[nH]1 [6-B03, 2-chloro-N-(1H-imidazol-2-yl)acetamide hydrochloride]",109.053
16,"CC(C)NC(=O)C(C#N)=Cc1ccc(Cl)c([N+](=O)[O-])c1 [8-J08, 3-(4-chloro-3-nitrophenyl)-2-cyano-N-(propan-2-yl)prop-2-enamide]",70.6322
17,"O=C(CCl)Nc1ccc(S(=O)(=O)N2CCCC2)cc1 [4-F08, 2-chloro-N-[4-(pyrrolidine-1-sulfonyl)phenyl]acetamide]",107.483
18,"N#CC(=Cc1ccc(OC(F)F)cc1)C(=O)Nc1cccnc1 [9-K04, 2-cyano-3-[4-(difluoromethoxy)phenyl]-N-(pyridin-3-yl)prop-2-enamide]",92.93
19,"Cc1cc(C(=O)CCl)c(C)n1-c1ccc(OC(F)(F)F)cc1 [10-G04, 2-chloro-1-{2,5-dimethyl-1-[4-(trifluoromethoxy)phenyl]-1H-pyrrol-3-yl}ethan-1-one]",98.344
20,"COCc1ccc(CNC(=O)CCl)cc1 [6-O22, 2-chloro-N-{[4-(methoxymethyl)phenyl]methyl}acetamide]",102.683
21,"CN(c1ccccc1)S(=O)(=O)c1cccc(NC(=O)CCl)c1 [4-H04, 2-chloro-N-{3-[methyl(phenyl)sulfamoyl]phenyl}acetamide]",111.106
22,"C=CC(=O)N1CCC(C(=O)Nc2ccn(Cc3ccccn3)n2)CC1 [3-B07, 1-(prop-2-enoyl)-N-{1-[(pyridin-2-yl)methyl]-1H-pyrazol-3-yl}piperidine-4-carboxamide]",107.969
23,"O=C(CCl)N(Cc1cc(F)ccc1F)CC1CCOCC1 [5-P03, 2-chloro-N-[(2,5-difluorophenyl)methyl]-N-[(oxan-4-yl)methyl]acetamide]",118.693
24,"CC(=O)N(C)c1cccc(NC(=O)C(C#N)=Cc2ccco2)c1 [9-L18, 2-cyano-3-(furan-2-yl)-N-[3-(N-methylacetamido)phenyl]prop-2-enamide]",86.8117
25,"C=CC(=O)NCc1ccc(C(=O)N2CCCC23CCOC3=O)cc1 (centres unmarked) [3-I06, N-[(4-{6-oxo-7-oxa-1-azaspiro[4.4]nonane-1-carbonyl}phenyl)methyl]prop-2-enamide]",101.441
26,"C=CC(=O)NC1CC(C2CCCCC2)C1 (centres unmarked) [1-D10, N-(3-cyclohexylcyclobutyl)prop-2-enamide]",96.9087
27,"C=CC(=O)NCCc1nccs1 [3-M20, N-[2-(1,3-thiazol-2-yl)ethyl]prop-2-enamide]",96.6771
28,"Cc1cc(C=C(C#N)C(=O)Nc2ccccn2)c(C)n1CC(C)C [9-J21, 2-cyano-3-[2,5-dimethyl-1-(2-methylpropyl)-1H-pyrrol-3-yl]-N-(pyridin-2-yl)prop-2-enamide]",56.6281
29,"COc1ccccc1CNC(=O)C(C)Cl (centres unmarked) [5-M21, 2-chloro-N-[(2-methoxyphenyl)methyl]propanamide]",101.376
